Measurements as given in ChEMBL document CHEMBL4888484, “Replenishing the malaria drug discovery pipeline: Screening and hit evaluation of the MMV Hit Generation Library 1 (HGL1) against asexual blood stage Plasmodium falciparum ,using a nano luciferase reporter read-out” (2022).
The whole screen tested about 150,000 compounds, of which about 540 (0.36%) showed an effect of 50% or more. This is one part of the list.

test system: Plasmodium falciparum; test: Primary screen in NF54 nanoGlo assay, in single point, at 2uM, 72h; a lower Z score goes with more inhibition; format: functional, Erythrocyte; settings: timepoint 72 hour

Row | SMILES | % Inhibition | Z score
1 | Cc1ccc(C(NC(=O)N2CCCN3CCCC3C2)C(C)(C)C)o1 (stereo not given) | -14% | 1.28
2 | COc1ccc(-c2nccnc2N2CCCC2)c(OC)c1 | -14% | 1.4
3 | Fc1ccc(Nc2nc(OC(C(F)(F)F)C(F)(F)F)nc(N3CCCCCC3)n2)cc1 | 29% | 0.03
4 | CC(=O)c1ccc(-n2cnnc2CCc2c(C)n[nH]c2C)cc1 | 5% | -0.99
5 | COCCc1nsc(NCc2cc(Br)cc3c2OCC3)n1 | 0% | 0.07
6 | Cn1cc(Cc2noc(C3CCC(F)(F)CC3)n2)nn1 | 0% | -0.01
7 | O=C(NCc1cc[nH]n1)C(=O)Nc1ccc(Br)cc1Cl | -4% | 0.63
8 | CC[C@@H](COCC(F)(F)F)NC(=O)c1ccn(C(C)C)n1 | -15% | 2.69
9 | Cc1cc(NCc2cccnc2N)nc(C2CC2)n1 | 4% | -0.72
10 | Cc1cnc(C(=O)Nc2nnc(C(F)(F)F)[nH]2)cn1 | -4% | 0.81
11 | CC(=O)N1CCCN(C(=O)CCn2cnc3ccccc3c2=O)CC1 | -13% | 1.94
12 | CC(C)Oc1cccc(C(=O)N(C)C[C@H]2CCCN2C)n1 | 0% | 0.04
13 | CC(C)C(=O)N(Cc1ccc(-c2ccc(Cl)c(Cl)c2)o1)[C@H]1CCS(=O)(=O)C1 | -5% | 0.61
14 | COc1cc(OCC(=O)NC(C2CC2)C2CC2)ccc1C#N | 7% | -0.84
15 | CN(CCN1CCOC(C)(C)C1)c1ccc(C#N)cn1 | -6% | 1.1
16 | CN(Cc1ccco1)CC1(CN(C)Cc2ccco2)COC1 | -12% | 1.64
17 | COc1cccc(S(=O)(=O)N2CCC(c3noc(COCC4CC4)n3)CC2)c1 | 2% | -0.25
18 | Cc1nc(-c2c3n(c(=O)n(CC(=O)NCc4ccc(F)cc4)c2=O)CCCC3)no1 | 4% | -0.46
19 | CCc1ccc(N2C[C@@H](c3nnc(NC(=O)C(C)(C)C)s3)CC2=O)cc1 | -7% | 0.97
20 | c1ccc(CCn2cc(C3CC3)nn2)nc1 | -9% | 1.74
21 | CCOC(=O)[C@H](NC(=O)c1ccccc1)c1nnc(-c2ccc(F)cc2)o1 | -7% | 1.06
22 | COCC(=O)N[C@@H]1CC[C@H]2CCOc3ccccc3C(=O)N3CCN(C4CCCCC4)C[C@H]3C(=O)NC[C@H]1O2 | -6% | 0.79

Row | SMILES | % Inhibition | Z score
23 | CO[C@H]1C[C@H]2CN(C(=O)CCc3c(C)noc3C)[C@@H](Cc3ccccc3)C(=O)N2C1 | -15% | 2.1
24 | COCc1csc(NC(=O)C(=O)NCc2ccc(C)cc2C)n1 | 3% | -0.47
25 | O=C(NCCc1ccc(Cl)cc1)c1ccc(Oc2ccnc(-c3cccc(F)c3)n2)cc1 | 2% | -0.25
26 | Cc1cn(-c2nc(-c3ccccc3)sc2-c2ccccc2)c(=O)nc1O | -28% | 3.3
27 | COc1ccc(-c2nnc3n2CCOC3)cc1OC | 4% | -0.83
28 | CCOCc1nc([C@@H]2CCCN2S(=O)(=O)c2cc(OC)ccc2OC)no1 | -5% | 0.63
29 | Cc1nnsc1C(=O)N1CCN(c2ncccn2)[C@H]2CS(=O)(=O)C[C@H]21 | 1% | -0.16
30 | NC(=O)[C@@H]1CCCN1Cc1cc(O)c2cccc(F)c2n1 | 0% | -0.09
31 | Cc1ccc(Cc2nc(N3CCN(C(=O)c4ccc(F)cc4)CC3)c3c(C)nn(-c4ccccc4)c3n2)cc1 | -4% | 0.45
32 | CC1(C)C2CCC1(C(=O)Nc1ccccc1)C(=O)C2=O (stereo not given) | -17% | 3.24
33 | C[C@@H]1C[C@H](Nc2ccccc2)c2ccccc2N1 | -8% | 1.59
34 | O=C(Oc1ccc(-c2ccccc2)cc1)[C@H]1CC(=O)N(c2ccc(F)cc2)C1 | -2% | 0.25
35 | Cn1cc(CCC(=O)Nc2cc(C3CCCCCC3)[nH]n2)cn1 | -14% | 2.7
36 | C#CCN(C1CCCCC1)S(=O)(=O)N1CCCC1 | -5% | 0.49
37 | CCC(=O)Nc1cc(C(=O)NC[C@H]2CCS(=O)(=O)C2)c2c(c1)nc(Cc1ccccc1)n2C | 4% | -0.5
38 | CC[C@@H](C(=O)OC(C)(C)C)N(C)C(=O)c1conc1COC | -6% | 1.14
39 | CC[C@](C)(NC(=O)CCc1nnc(C2CCCC2)o1)c1ccccc1 | -11% | 1.61
40 | CCN(C)C1(CNS(=O)(=O)C2CC2)CCCC1 | -13% | 1.26
41 | COc1ccc(-n2nc(-c3ccco3)nc2[C@H](C)N2CCN(C)CC2)cc1 | -3% | 0.67
42 | COc1cc2oc(C(=O)N3CCN(Cc4ccccc4)CC3)c(C)c2cc1Br | -8% | 1.33
43 | COCCNC(=O)NCc1cc(-c2cnccn2)nn1C | 16% | -2.01
44 | CC1CC(C(=O)Nc2nc3ccsc3s2)CCO1 (stereo not given) | -12% | 1.64

Row | SMILES | % Inhibition | Z score
45 | O=C(CCOC[C@H]1CCCO1)Nc1cccnc1 | -1% | 0.14
46 | Cc1ccc(-n2cc(-c3ccc(Cl)cc3)nc2NC(=O)CN(CC(C)C)S(=O)(=O)c2ccc(Cl)cc2)cc1 | -6% | 0.75
47 | Clc1cccc2c1CC[C@@H]2NCc1cc(Br)c2c(c1)OCO2 | -15% | 1.73
48 | c1cnc(N2CCN([C@H]3CCOC4(CCOCC4)C3)CC2)nc1 | -5% | 0.43
49 | Cc1ccc(Cl)cc1N1C(=O)c2cc(C(C)C)nn2C[C@@]1(C)C(=O)NC1CCCCCCC1 | 2% | -0.26
50 | CC(C)c1noc(CNC(=O)N2CCN(C(=O)c3ccccc3)CC2)n1 | -5% | 1
51 | Cc1ncc(NC(=O)c2ccc(Br)o2)s1 | -6% | 0.65
52 | CCCCc1cc(C[C@@H]2C[C@H](NC(C)C)C2(C)C)no1 | -2% | 0.25
53 | CC(C)n1[nH]c(=O)c2c1NC(=O)C[C@@H]2c1ccc(O)cc1 | -8% | 1.05
54 | Cc1cc(C(F)F)oc1C(=O)N1CC(=O)N(C)C[C@@H]1C | 7% | -0.99
55 | FC(F)C1CC(Nc2cccc3nccnc23)C1 (stereo not given) | -13% | 1.34
56 | Cc1ccc(C)c(-n2cnc(=O)n2CC(=O)N2CCc3sccc3C2)c1 | 8% | -1.4
57 | CC[C@H](OC1CCCCC1)c1nc(-c2cnn(C)c2N)no1 | -16% | 2
58 | CC(C)N1CCN(C(=O)[C@H]2CCCN(c3nnc4c(Cl)cccn34)C2)CC1 | -21% | 3.51
59 | Cc1nc2c(c(N3CCCCC3)n1)CN(C(=O)c1cc(Cl)cc(Cl)c1)CC2 | -14% | 2.33
60 | CCCCCN(Cc1nnc(-c2ccccc2)o1)S(=O)(=O)c1cnn(C(F)F)c1 | -4% | 0.5
61 | Cn1cc([C@H]2CCCN(C(=O)c3cc(C(F)(F)F)n(C)n3)C2)cn1 | -17% | 1.98
62 | O=C(Cc1nnn[nH]1)N(CCC1=CCCCC1)CC1CC1 | -17% | 2.53
63 | CC1(C)CN(Cc2nccs2)C[C@]1(C)O | -14% | 2.36
64 | Cc1cc(S(=O)(=O)N2CCC(N)CC2C)c(C)o1 (stereo not given) | -3% | 0.5
65 | COc1nc(-c2cccc(C(=O)NCC3CCOCC3)c2)ncc1F | 70% | -12.03
66 | COCCn1ccnc1CN1Cc2ccccc2[C@@H](O)C1 | -15% | 1.82

Row | SMILES | % Inhibition | Z score
67 | CCc1ccc(C(=O)N2CCC(CN3CCCCC3=O)CC2)cc1 | 3% | -0.38
68 | CC[C@@H]1C(=O)NCCCN1C(=O)c1ccnc(-n2cccn2)c1 | -2% | 0.45
69 | C[C@@H](c1cccc(-c2ccc3c(c2)CCC3=O)c1)N(C)C | -10% | 1.03
70 | COc1ccc2c(c1)CN(C(=O)c1cccc(CO)c1)[C@H](c1ccccc1)C2 | -9% | 0.94
71 | Cn1c(Cl)cnc1Cc1nc2ccccc2c(=O)[nH]1 | -7% | 0.69
72 | O=C(C1CC1c1ccccc1)N1CCC(CN2CCCCC2)C1 (stereo not given) | -9% | 1.05
73 | NC(=O)c1ccccc1OCC#CCNC(=O)NCc1ccccc1 | -14% | 1.74
74 | CCC(=O)N1CCC(NC(C)c2nc(C(C)C)no2)C(CC)C1 (stereo not given) | -15% | 1.23
75 | CC(O)C1CCN(C2CCN(c3ccccc3)C2=O)C1 (stereo not given) | -2% | 0.33
76 | COc1c(CNC(=O)N[C@H]2CCN(CC(F)(F)F)C2)c(C)nn1C | -17% | 1.94
77 | CC(C)C(=O)NCCn1cc([C@H](C)c2ccccc2)nn1 | -2% | 0.38
78 | CN1C[C@H]2CN(C(=O)c3csc4c3CCCC4)C[C@@]2(C(=O)O)C1 | -5% | 0.76
79 | Cc1cc(C(=O)N2CCC[C@H](c3[nH]ncc3-c3ccc(F)cc3)C2)nc(C)n1 | -5% | 0.89
80 | CN(CCn1cncn1)Cc1ccc(F)c(C#N)c1 | -2% | 0.29
81 | Cc1ccc(S(=O)(=O)Nc2ccc(N3CCOCC3)nc2)cc1 | 2% | -0.27
82 | CN1CCCC1C1CCCN1C(=O)c1nccc2ccccc12 (stereo not given) | 6% | -0.81
83 | Cc1nnc2sc(-c3ccc(NC(=O)c4ccc(-c5ccc(Cl)c(Cl)c5)o4)cc3)nn12 | -4% | 0.43
84 | CCCCN(CC(N)=O)C(=O)[C@@H]1CCOc2ccc(Cl)cc21 | -3% | 0.54
85 | Cc1n[nH]c([C@H](C)Oc2cccc(Cl)c2)n1 | 4% | -0.64
